Test results published in the supplement of paper PMC10126150.
Sequences with one replicate were seen in a single cluster, so their values are uncertain.

System: ATP
Assay: switch fluorescence ratio, 500 uM ATP over buffer (Cy3 cluster intensity, sum of 5 cycles each) (fold (ratio)); higher = stronger signal-on switching upon ATP binding; sequences stand for … in TCGTCGGCAGCGTCAGATGTGTATAAGAGACAGTTTTTTTTTTTTTTTTTTTTTTTTT…TC
Settings: aptamer strand: ATP DNA aptamer (quencher-CACCTGGGGGAGTATTGCGGAGGAAGG + anchor), 100 nM annealed; ATP concentration: 500 uM; one replicate
Outline: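 Exposure to 500 uM ATP lasted 15 min at 22 °C before imaging, and a selection-buffer image was taken beforehand, for Cy3-labelled switching-strand clusters on a modified Illumina MiSeq flow-cell annealed to 100 nM quencher-labelled ATP aptamer. Five buffer/ATP cycles were run with NaOH stripping and re-annealing between them. The fluorescence ratio per cluster is summed target-cycle over summed buffer-cycle Cy3 intensity, averaged per switch-domain sequence. Clusters outside 100-1000 RFU were excluded.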

Q: AATAAATGGC was tested. Which switch fluorescence ratio did it give?
A: 1.01

Q: Which switch fluorescence ratio does the source give for AATTTCCAGC here?
A: 1.01

Q: How did the switch fluorescence ratio turn out when GCGCATGAAC was run?
A: 2.32

Q: How did the switch fluorescence ratio turn out when TTGACAAAGG was run?
A: 0.981

Q: Which switch fluorescence ratio does the source give for TGGGCGGCTG here?
A: 0.991

Q: With TTGAATTATA as the sequence, how does the switch fluorescence ratio read?
A: 0.993

Q: How did the switch fluorescence ratio turn out when GACAATAATA was run?
A: 1.25

Q: CCTTAATCGG was tested. Which switch fluorescence ratio did it give?
A: 1.02

Q: How did the switch fluorescence ratio turn out when TAGAGTAACG was run?
A: 1.08

Q: GGATCAGACA was tested. Which switch fluorescence ratio did it give?
A: 0.986

Q: With CCAGGGCCTT as the sequence, how does the switch fluorescence ratio read?
A: 0.964

Q: For AATTATAGAG, which switch fluorescence ratio is on record?
A: 1

Q: Which switch fluorescence ratio does the source give for CGATGAGAGG here?
A: 0.973

Q: For AGGGCTGGTA, which switch fluorescence ratio is on record?
A: 1

Q: How did the switch fluorescence ratio turn out when TGATGGACAC was run?
A: 1.02

Q: For TGGCCCAGAG, which switch fluorescence ratio is on record?
A: 1.07

Q: For GCTTTACATA, which switch fluorescence ratio is on record?
A: 1.05

Q: Which switch fluorescence ratio does the source give for CTCAGTTGGG here?
A: 0.985

Q: CGCTTAAACG was tested. Which switch fluorescence ratio did it give?
A: 1.07

Q: TTCCTACAAT was tested. Which switch fluorescence ratio did it give?
A: 1.21

Q: With GCATGCCCAT as the sequence, how does the switch fluorescence ratio read?
A: 0.989

Q: For CAAGGGCTCA, which switch fluorescence ratio is on record?
A: 1.03

Q: CTTTCTCGA was tested. Which switch fluorescence ratio did it give?
A: 1.03

Q: Which switch fluorescence ratio does the source give for AACCTAGCAA here?
A: 5.13

Q: How did the switch fluorescence ratio turn out when AATCATTCTA was run?
A: 0.974

Q: For AGGTGTTTG, which switch fluorescence ratio is on record?
A: 1.04

Q: Which switch fluorescence ratio does the source give for CCTTTAGTGG here?
A: 0.97

Q: How did the switch fluorescence ratio turn out when CGTCTCAGTT was run?
A: 1.05

Q: Which switch fluorescence ratio does the source give for ACATGTACG here?
A: 1.12

Q: With GAAGGTTTCC as the sequence, how does the switch fluorescence ratio read?
A: 0.992

Q: For CTACGTAGT, which switch fluorescence ratio is on record?
A: 1.01

Q: GAGCAGCAAA was tested. Which switch fluorescence ratio did it give?
A: 0.996

Q: For GCACGCTCAG, which switch fluorescence ratio is on record?
A: 1.03

Q: Which switch fluorescence ratio does the source give for CTTGCTAAGC here?
A: 1.08

Q: Which switch fluorescence ratio does the source give for ACGGTTCTAC here?
A: 1.07

Q: CAGAGGCAAG was tested. Which switch fluorescence ratio did it give?
A: 1.98

Q: How did the switch fluorescence ratio turn out when CCGTCTTAAT was run?
A: 1.01

Q: How did the switch fluorescence ratio turn out when AATGAATGCC was run?
A: 0.956

Q: With GTTTGTAGAT as the sequence, how does the switch fluorescence ratio read?
A: 1.12

Q: ATCGTGATAA was tested. Which switch fluorescence ratio did it give?
A: 0.998

Q: How did the switch fluorescence ratio turn out when ACTGAAATT was run?
A: 0.889

Q: How did the switch fluorescence ratio turn out when CGGTCCTGTG was run?
A: 0.975

Q: Which switch fluorescence ratio does the source give for GAAGTAAAAC here?
A: 1.52

Q: With TCGGTAGACG as the sequence, how does the switch fluorescence ratio read?
A: 0.902

Q: For TTCCAGAGCA, which switch fluorescence ratio is on record?
A: 3.03

Q: CGTCCGGTCA was tested. Which switch fluorescence ratio did it give?
A: 1.18

Q: With CAGGGGTCGG as the sequence, how does the switch fluorescence ratio read?
A: 1

Q: TTCGACTGAG was tested. Which switch fluorescence ratio did it give?
A: 1.03

Q: For GCACATGGAC, which switch fluorescence ratio is on record?
A: 1.15

Q: With CGCGCAGTGT as the sequence, how does the switch fluorescence ratio read?
A: 0.997

Q: With ACCTTGATGC as the sequence, how does the switch fluorescence ratio read?
A: 1.05

Q: TCCCACTTTC was tested. Which switch fluorescence ratio did it give?
A: 1.12

Q: How did the switch fluorescence ratio turn out when CCCTACGTTT was run?
A: 1.02

Q: With GACGGCTAAA as the sequence, how does the switch fluorescence ratio read?
A: 1.05

Q: How did the switch fluorescence ratio turn out when CCTGATCCTC was run?
A: 1.04

Q: How did the switch fluorescence ratio turn out when CCACGACCCG was run?
A: 1.11

Q: How did the switch fluorescence ratio turn out when TTCATACCCC was run?
A: 1.1

Q: AGGAATCGG was tested. Which switch fluorescence ratio did it give?
A: 0.987

Q: With AGATCGATGC as the sequence, how does the switch fluorescence ratio read?
A: 0.994

Q: With ACAAGTTATG as the sequence, how does the switch fluorescence ratio read?
A: 0.929

Q: How did the switch fluorescence ratio turn out when TCCTCAGCGC was run?
A: 4.07

Q: For ATATTCAATT, which switch fluorescence ratio is on record?
A: 0.99

Q: CGGCTGTTGG was tested. Which switch fluorescence ratio did it give?
A: 0.984

Q: With AAGTGCTCTA as the sequence, how does the switch fluorescence ratio read?
A: 0.963

Q: Which switch fluorescence ratio does the source give for AGATTTCGG here?
A: 0.955

Q: How did the switch fluorescence ratio turn out when CGTCAGGTTC was run?
A: 0.987

Q: Which switch fluorescence ratio does the source give for CGTCGTTTTT here?
A: 0.963

Q: With ATCGATAACG as the sequence, how does the switch fluorescence ratio read?
A: 0.978

Q: How did the switch fluorescence ratio turn out when AATCCCGAGG was run?
A: 1.14

Q: Which switch fluorescence ratio does the source give for TCGGACAGAT here?
A: 1.01

Q: GTCTAAAGCC was tested. Which switch fluorescence ratio did it give?
A: 1.04

Q: GTTATTTGAG was tested. Which switch fluorescence ratio did it give?
A: 0.968

Q: ACCGAATTGG was tested. Which switch fluorescence ratio did it give?
A: 1.02

Q: TTTTGGAACT was tested. Which switch fluorescence ratio did it give?
A: 0.988

Q: ATAAACACG was tested. Which switch fluorescence ratio did it give?
A: 1.04

Q: For ATGGAATTTT, which switch fluorescence ratio is on record?
A: 1

Q: Which switch fluorescence ratio does the source give for GACGTGATAG here?
A: 1.76

Q: Which switch fluorescence ratio does the source give for CGGCTGTCGT here?
A: 1.02

Q: TTTCCTTTAG was tested. Which switch fluorescence ratio did it give?
A: 1.04

Q: For AGGGCTGGCT, which switch fluorescence ratio is on record?
A: 0.974

Q: GTGATTCAAC was tested. Which switch fluorescence ratio did it give?
A: 0.965

Q: Which switch fluorescence ratio does the source give for ATGTTCAACC here?
A: 1.02

Q: With ATCTAAGGGT as the sequence, how does the switch fluorescence ratio read?
A: 0.97

Q: TAGTAATATA was tested. Which switch fluorescence ratio did it give?
A: 1.01

Q: TCGACAGTGT was tested. Which switch fluorescence ratio did it give?
A: 0.967
